# Laboratory results published in the supplement of paper PMC10724272.
# Compound: CCC(C)n1ncn(-c2ccc(N3CCN(c4ccc(OCC5COC(Cn6cncn6)(c6ccc(Cl)cc6Cl)O5)cc4)CC3)cc2)c1=O [itraconazole]
# Test: CLSI broth microdilution.
row,Test System,MIC
1,"Candida tropicalis isolate 22 (ERG11 copies: 2, Erg11p: no key change)",0.25 mg/L [S]
2,"Candida tropicalis isolate 56 (ERG11 copies: 2, Erg11p: Y132F, S154F (heterozygous))",1 mg/L [R]
3,"Candida tropicalis isolate 42 (ERG11 copies: 8, Erg11p: Y132F, S154F (heterozygous))",1 mg/L [R]
4,"Candida tropicalis isolate 203 (ERG11 copies: 3, Erg11p: Y132F, S154F (heterozygous))",1 mg/L [R]
5,"Candida tropicalis isolate 248 (ERG11 copies: 2, Erg11p: no key change)",0.5 mg/L [S]
6,"Candida tropicalis isolate 184 (ERG11 copies: 2, Erg11p: no key change)",0.25 mg/L [S]
7,"Candida tropicalis isolate 400 (ERG11 copies: 2, Erg11p: no key change)",0.5 mg/L [S]
8,"Candida tropicalis isolate 81 (ERG11 copies: 2, Erg11p: no key change)",0.25 mg/L [S]
9,"Candida tropicalis isolate 18 (ERG11 copies: 9, Erg11p: Y132F, S154F (heterozygous))",1 mg/L [R]
10,"Candida tropicalis isolate 359 (ERG11 copies: 2, Erg11p: no key change)",0.5 mg/L [S]
11,"Candida tropicalis isolate 156 (ERG11 copies: 2, Erg11p: no key change)",0.5 mg/L [S]
12,"Candida tropicalis isolate 40 (ERG11 copies: 2, Erg11p: Y132F, S154F (homozygous))",0.25 mg/L [S]
13,"Candida tropicalis isolate 161 (ERG11 copies: 2, Erg11p: no key change)",0.25 mg/L [S]
14,"Candida tropicalis isolate 84 (ERG11 copies: 12, Erg11p: Y132F, S154F (homozygous))",1 mg/L [R]
15,"Candida tropicalis isolate 429 (ERG11 copies: 8, Erg11p: Y132F, S154F (heterozygous))",0.5 mg/L [S]
16,"Candida tropicalis isolate 167 (ERG11 copies: 6, Erg11p: Y132F, S154F (heterozygous))",1 mg/L [R]
17,"Candida tropicalis isolate 364 (ERG11 copies: 2, Erg11p: no key change)",0.06 mg/L [S]
18,"Candida tropicalis isolate 332 (ERG11 copies: 2, Erg11p: no key change)",0.12 mg/L [S]

# Compound: CC[C@@H]([C@H](C)O)n1ncn(-c2ccc(N3CCN(c4ccc(OC[C@@H]5CO[C@@](Cn6cncn6)(c6ccc(F)cc6F)C5)cc4)CC3)cc2)c1=O [posaconazole]
# Test: CLSI broth microdilution.
row,Test System,MIC
1,"Candida tropicalis isolate 188 (ERG11 copies: 2, Erg11p: no key change)",0.06 mg/L [S]
2,"Candida tropicalis isolate 275 (ERG11 copies: 2, Erg11p: Y132F, S154F (heterozygous))",0.25 mg/L [S]
3,"Candida tropicalis isolate 247 (ERG11 copies: 2, Erg11p: no key change)",0.03 mg/L [S]
4,"Candida tropicalis isolate 225 (ERG11 copies: 2, Erg11p: no key change)",0.12 mg/L [S]
5,"Candida tropicalis isolate 119 (ERG11 copies: 2, Erg11p: no key change)",0.06 mg/L [S]
6,"Candida tropicalis isolate 407 (ERG11 copies: 2, Erg11p: no key change)",0.5 mg/L [R]
7,"Candida tropicalis isolate 153 (ERG11 copies: 2, Erg11p: no key change)",0.25 mg/L [S]
8,"Candida tropicalis isolate 229 (ERG11 copies: 2, Erg11p: no key change)",0.25 mg/L [S]
9,"Candida tropicalis isolate 239 (ERG11 copies: 2, Erg11p: no key change)",0.12 mg/L [S]
10,"Candida tropicalis isolate 420 (ERG11 copies: 2, Erg11p: G464S (heterozygous))",1 mg/L [R]
11,"Candida tropicalis isolate 198 (ERG11 copies: 7, Erg11p: Y132F, S154F (heterozygous))",0.5 mg/L [R]
12,"Candida tropicalis isolate 109 (ERG11 copies: 2, Erg11p: no key change)",0.12 mg/L [S]
13,"Candida tropicalis isolate 134 (ERG11 copies: 2, Erg11p: no key change)",0.03 mg/L [S]
14,"Candida tropicalis isolate 33 (ERG11 copies: 2, Erg11p: no key change)",0.12 mg/L [S]
15,"Candida tropicalis isolate 249 (ERG11 copies: 2, Erg11p: no key change)",0.12 mg/L [S]
16,"Candida tropicalis isolate 179 (ERG11 copies: 6, Erg11p: Y132F, S154F (heterozygous))",0.25 mg/L [S]
17,"Candida tropicalis isolate 68 (ERG11 copies: 2, Erg11p: no key change)",0.25 mg/L [S]
18,"Candida tropicalis isolate 22 (ERG11 copies: 2, Erg11p: no key change)",0.25 mg/L [S]

row,Test System,MIC
1,"Candida tropicalis isolate 56 (ERG11 copies: 2, Erg11p: Y132F, S154F (heterozygous))",1 mg/L [R]
2,"Candida tropicalis isolate 42 (ERG11 copies: 8, Erg11p: Y132F, S154F (heterozygous))",2 mg/L [R]
3,"Candida tropicalis isolate 203 (ERG11 copies: 3, Erg11p: Y132F, S154F (heterozygous))",0.5 mg/L [R]
4,"Candida tropicalis isolate 248 (ERG11 copies: 2, Erg11p: no key change)",0.5 mg/L [R]
5,"Candida tropicalis isolate 184 (ERG11 copies: 2, Erg11p: no key change)",0.12 mg/L [S]
6,"Candida tropicalis isolate 400 (ERG11 copies: 2, Erg11p: no key change)",0.5 mg/L [R]
7,"Candida tropicalis isolate 81 (ERG11 copies: 2, Erg11p: no key change)",0.5 mg/L [R]
8,"Candida tropicalis isolate 18 (ERG11 copies: 9, Erg11p: Y132F, S154F (heterozygous))",2 mg/L [R]
9,"Candida tropicalis isolate 359 (ERG11 copies: 2, Erg11p: no key change)",1 mg/L [R]
10,"Candida tropicalis isolate 156 (ERG11 copies: 2, Erg11p: no key change)",0.25 mg/L [S]
11,"Candida tropicalis isolate 40 (ERG11 copies: 2, Erg11p: Y132F, S154F (homozygous))",0.12 mg/L [S]
12,"Candida tropicalis isolate 161 (ERG11 copies: 2, Erg11p: no key change)",0.12 mg/L [S]
13,"Candida tropicalis isolate 84 (ERG11 copies: 12, Erg11p: Y132F, S154F (homozygous))",1 mg/L [R]
14,"Candida tropicalis isolate 429 (ERG11 copies: 8, Erg11p: Y132F, S154F (heterozygous))",0.5 mg/L [R]
15,"Candida tropicalis isolate 167 (ERG11 copies: 6, Erg11p: Y132F, S154F (heterozygous))",1 mg/L [R]
16,"Candida tropicalis isolate 364 (ERG11 copies: 2, Erg11p: no key change)",0.03 mg/L [S]
17,"Candida tropicalis isolate 332 (ERG11 copies: 2, Erg11p: no key change)",0.12 mg/L [S]

# Compound: OC(Cn1cncn1)(Cn1cncn1)c1ccc(F)cc1F [fluconazole]
# Test: CLSI broth microdilution.
row,Test System,MIC
1,"Candida tropicalis isolate 188 (ERG11 copies: 2, Erg11p: no key change)",0.12 mg/L [S]
2,"Candida tropicalis isolate 275 (ERG11 copies: 2, Erg11p: Y132F, S154F (heterozygous))",16 mg/L [R]
3,"Candida tropicalis isolate 247 (ERG11 copies: 2, Erg11p: no key change)",0.5 mg/L [S]
4,"Candida tropicalis isolate 225 (ERG11 copies: 2, Erg11p: no key change)",2 mg/L [S]
5,"Candida tropicalis isolate 119 (ERG11 copies: 2, Erg11p: no key change)",1 mg/L [S]
6,"Candida tropicalis isolate 407 (ERG11 copies: 2, Erg11p: no key change)",2 mg/L [S]
7,"Candida tropicalis isolate 153 (ERG11 copies: 2, Erg11p: no key change)",1 mg/L [S]
8,"Candida tropicalis isolate 229 (ERG11 copies: 2, Erg11p: no key change)",2 mg/L [S]
9,"Candida tropicalis isolate 239 (ERG11 copies: 2, Erg11p: no key change)",1 mg/L [S]
10,"Candida tropicalis isolate 420 (ERG11 copies: 2, Erg11p: G464S (heterozygous))",16 mg/L [R]
11,"Candida tropicalis isolate 198 (ERG11 copies: 7, Erg11p: Y132F, S154F (heterozygous))",512 mg/L [R]
12,"Candida tropicalis isolate 109 (ERG11 copies: 2, Erg11p: no key change)",1 mg/L [S]
13,"Candida tropicalis isolate 134 (ERG11 copies: 2, Erg11p: no key change)",0.5 mg/L [S]
14,"Candida tropicalis isolate 33 (ERG11 copies: 2, Erg11p: no key change)",2 mg/L [S]
15,"Candida tropicalis isolate 249 (ERG11 copies: 2, Erg11p: no key change)",1 mg/L [S]
16,"Candida tropicalis isolate 179 (ERG11 copies: 6, Erg11p: Y132F, S154F (heterozygous))",256 mg/L [R]
17,"Candida tropicalis isolate 68 (ERG11 copies: 2, Erg11p: no key change)",2 mg/L [S]
18,"Candida tropicalis isolate 22 (ERG11 copies: 2, Erg11p: no key change)",4 µg/mL
19,"Candida tropicalis isolate 56 (ERG11 copies: 2, Erg11p: Y132F, S154F (heterozygous))",> 256 mg/L [R]
20,"Candida tropicalis isolate 42 (ERG11 copies: 8, Erg11p: Y132F, S154F (heterozygous))",512 mg/L [R]
21,"Candida tropicalis isolate 203 (ERG11 copies: 3, Erg11p: Y132F, S154F (heterozygous))",128 mg/L [R]
22,"Candida tropicalis isolate 248 (ERG11 copies: 2, Erg11p: no key change)",4 µg/mL
23,"Candida tropicalis isolate 184 (ERG11 copies: 2, Erg11p: no key change)",1 mg/L [S]
24,"Candida tropicalis isolate 400 (ERG11 copies: 2, Erg11p: no key change)",2 mg/L [S]
25,"Candida tropicalis isolate 81 (ERG11 copies: 2, Erg11p: no key change)",2 mg/L [S]
26,"Candida tropicalis isolate 18 (ERG11 copies: 9, Erg11p: Y132F, S154F (heterozygous))",512 mg/L [R]

# MIC of invasive clinical C. tropicalis isolates, CLSI broth microdilution (fluconazole 0.12-256 mg/L, up to 1,024 for the azole-resistant cluster and its neighbour group; other ranges not stated); higher = less susceptible. Call: susceptible or wild type [S] / resistant or non-wild type [R] by CLSI breakpoints or cut-offs; intermediate and dose-dependent carry no call. '<=' and '>=' at the end values are inferred; the source marks only some of them. Isolates are numbered anew.
